Hit rate of the full screen: of about 310,000 compounds, about 14,000 (4.5%) showed an effect of 50% or more. Effects have a minus sign here. The list shows a part of the results.
target: human ether-à-go-go-related gene (hERG) potassium channel (human, UniProt Q12809); assay: primary screen, population patch clamp on CHO cells stably expressing hERG
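Also: peak tail current of the secondary pulse compared with the same well before compound.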

Chain of human ether-à-go-go-related gene (hERG) potassium channel (Q12809 whole entry, looked up): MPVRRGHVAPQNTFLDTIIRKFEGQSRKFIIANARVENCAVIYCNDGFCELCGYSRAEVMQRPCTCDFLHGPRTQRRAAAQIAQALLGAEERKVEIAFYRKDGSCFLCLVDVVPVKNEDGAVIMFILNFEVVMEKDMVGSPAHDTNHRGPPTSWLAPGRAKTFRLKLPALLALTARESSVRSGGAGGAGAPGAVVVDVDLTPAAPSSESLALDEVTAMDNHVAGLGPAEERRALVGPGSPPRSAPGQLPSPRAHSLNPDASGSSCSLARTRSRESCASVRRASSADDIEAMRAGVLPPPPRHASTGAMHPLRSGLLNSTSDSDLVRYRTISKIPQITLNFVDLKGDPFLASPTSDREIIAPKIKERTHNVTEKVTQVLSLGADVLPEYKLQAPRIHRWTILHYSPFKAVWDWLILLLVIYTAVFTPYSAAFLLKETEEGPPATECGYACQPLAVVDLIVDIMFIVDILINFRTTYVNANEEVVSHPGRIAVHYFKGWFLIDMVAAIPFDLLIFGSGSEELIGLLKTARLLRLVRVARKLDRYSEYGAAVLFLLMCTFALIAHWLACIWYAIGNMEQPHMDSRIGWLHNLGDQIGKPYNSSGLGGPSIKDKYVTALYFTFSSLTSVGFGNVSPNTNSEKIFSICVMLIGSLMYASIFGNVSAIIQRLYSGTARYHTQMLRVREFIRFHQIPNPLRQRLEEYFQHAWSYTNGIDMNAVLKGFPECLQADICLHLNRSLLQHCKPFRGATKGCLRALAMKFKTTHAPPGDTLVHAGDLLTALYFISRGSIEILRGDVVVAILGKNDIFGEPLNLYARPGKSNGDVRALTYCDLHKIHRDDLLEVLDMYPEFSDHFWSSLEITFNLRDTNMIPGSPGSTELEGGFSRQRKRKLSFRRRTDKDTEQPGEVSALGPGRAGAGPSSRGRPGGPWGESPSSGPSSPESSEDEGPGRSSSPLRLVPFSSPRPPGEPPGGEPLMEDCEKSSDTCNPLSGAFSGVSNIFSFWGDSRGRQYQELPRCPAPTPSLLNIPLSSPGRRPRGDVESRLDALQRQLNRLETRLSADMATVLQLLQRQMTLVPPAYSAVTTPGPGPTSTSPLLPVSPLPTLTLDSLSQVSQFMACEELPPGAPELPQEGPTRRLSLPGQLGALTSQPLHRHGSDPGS

| SMILES | hERG current change (%, negative = inhibition) at 10uM [%] |
| --- | --- |
| Cc1cc(C(=O)N2CCN(c3ccc([N+](=O)[O-])cc3)CC2)c(C)o1 | -73.5 |
| Cc1ccc(-c2c(C(=O)N/N=C/C3CC=CCC3)nnn2-c2nonc2N)cc1 (stereo not drawn) | 20.5 |
| COCC(CN1CCN(C2=NS(=O)(=O)c3ccccc32)CC1)OC(=O)c1ccc(OC)cc1 (stereo not drawn) | -43.3 |
| O=C(CNC(=O)c1cccs1)N/N=C/c1c[nH]c2ccccc12 | 2.63 |
| O=C(COC(=O)/C=C/c1ccc(S(=O)(=O)N2CCCCCC2)cc1)NCc1ccccc1Cl | 12 |
| Cc1c(NC(=O)COc2ccccc2Cl)c(=O)n(-c2ccccc2)n1C | -4.59 |
| Cc1ccc(-n2nc3ccc(NC(=O)c4cccc([N+](=O)[O-])c4C)cc3n2)cc1 | 11.1 |
| Cc1ccc(NC(=O)N2CCOCC2)c(C)c1 | 18.8 |
| Fc1ccc(CNc2ccc(N3CCN(Cc4ccccc4)CC3)cc2)cc1 | -30.1 |
| CCOC(=O)N1CCC(NC(=O)CS(=O)(=O)Cc2nc(-c3ccccc3C)oc2C)CC1 | -4.7 |
| O=C(O)c1ccc(NS(=O)(=O)c2cc(C(=O)O)ccc2Br)cc1 | 17 |
| O=C(N/N=C/c1ccc(Cl)cc1Cl)c1n[nH]c2c1CCCC2 | 11.2 |
| Nc1c(C(=O)NCCc2ccccc2)c2nc3ccccc3nc2n1CCN1CCOCC1 | -3.49 |
| Nc1c(C(=O)CSc2nc(-c3ccccc3)cs2)c(=O)[nH]c(=O)n1C1CC1 | -7.63 |
| O=C(CCCn1c(=S)[nH]c2ccsc2c1=O)NC1CCCCC1 | 7.91 |
| CC1(c2ccc(Cl)cc2Cl)NC(=O)N(CC(=O)Nc2ccc3[nH]c(=O)[nH]c3c2)C1=O (stereo not drawn) | 5.84 |
| Cc1ccc2nc(C)c(C(=O)O)cc2c1 | 31.7 |
| CSCCC(C)N1CCC(Oc2ccc(C(=O)N3CCCC3)cc2)CC1 (stereo not drawn) | -31.3 |
| CCOC(=O)c1cc(-c2ccncc2)nc2c1c(C)nn2C | -14.8 |
| COc1cccc(OC)c1/C(O)=C(\C#N)c1nc2ccccc2[nH]1 | -11.3 |
| O=C(NCCN1CCOCC1)c1ccccc1N1C(=O)[C@@H]2Cc3c([nH]c4ccccc34)C(c3ccc(F)cc3)N2C1=O (stereo partly drawn) | -47.2 |
| O=C(/C=C/c1cccc(O)c1)c1cccnc1 | 3.05 |

| SMILES | hERG current change (%, negative = inhibition) at 10uM [%] |
| --- | --- |
| Cc1ccc(CNS(=O)(=O)NCc2ccccc2F)cc1 | 3.08 |
| Clc1cccc2sc(-c3nnc(-c4ccccc4)o3)c(Cl)c12 | -2.74 |
| CCOC(=O)[C@H]1[C@H]2COc3cc(OC)ccc3[C@@H]2N2C(=O)CN(CC3CCCO3)C(=O)[C@@]12C (stereo partly drawn) | 13.8 |
| Cc1ccnn1-c1ccc(C(=O)NCC(c2ccco2)N2CCCC2)cc1 (stereo not drawn) | -16.5 |
| CCCN(CC(=O)Nc1ccccc1C)C(=O)C1CCN(c2ncnc3sc(C)c(C)c23)CC1 | -76.2 |
| C/C(=N/NS(=O)(=O)c1ccc(Cl)cc1)c1ccc2c(c1)OCO2 | -12.9 |
| COc1ccc(NC(=O)CN(C)C(=O)Cc2coc3cc(C)c(C)cc23)cc1 | -7.63 |
| CCOc1ccc2nc(Nc3nc4ccc(NC(C)=O)cc4s3)sc2c1 | 7.77 |
| CC1=C(C(=O)OCc2ccccc2)C(c2ccc(Cl)cc2)NC(=O)N1CCCC(=O)O (stereo not drawn) | 0.856 |
| O=C(NCc1ccco1)c1cccc(F)c1 | 6.59 |
| CCOc1cccc2sc(N(CCCN(C)C)C(=O)c3ccc(S(=O)(=O)N4CCCCCC4)cc3)nc12.Cl | 7.67 |
| O=C(CSc1nnc(-c2c[nH]c3ccccc23)o1)N(Cc1ccccc1)c1ccc(F)cc1 | 14.1 |
| NC(=S)C(c1ccccc1)c1ncc(C(F)(F)F)cc1Cl (stereo not drawn) | 17.5 |
| [Br-].c1ccc(Cc2cc[n+](Cc3ccccn3)cc2)cc1 | 1.63 |
| COCCn1cc(C(=O)NCCCOC(C)C)c2c3ccccc3n(C)c2c1=O | 2.69 |
| O=C(NC1CCN(S(=O)(=O)c2ccc(Cl)c(F)c2)CC1)c1cccnc1 | -19.2 |
| COCc1cc(=O)[nH]c(-c2ccccc2)n1 | 8.53 |
| O=C(NCc1ccco1)c1ccccc1-c1nc(-c2ccccc2)no1 | 2.66 |
| O=C(O)c1cccc(COCC(F)(F)C(F)F)c1 | 3.02 |
| Nc1nc(N)nc(-c2ccccc2-c2nc(N)nc(N)n2)n1 | 32.5 |
| COc1cc(CNC(=O)OCC(C)C)cc(OC)c1OC | 4.14 |
| COc1ccc(NC(=O)C2CCCN2S(=O)(=O)c2cccc3nsnc23)c(OC)c1 (stereo not drawn) | -9.33 |

| SMILES | hERG current change (%, negative = inhibition) at 10uM [%] |
| --- | --- |
| Cc1csc(SCC(=O)NC2CCCCC2)n1 | -1.79 |
| O=C(CC1SC(N2CCOCC2)=NC1=O)Nc1cc([N+](=O)[O-])ccc1Cl (stereo not drawn) | 6.56 |
| CCCCN=C1NC(=O)C(CC(=O)Nc2ccc(Cl)cc2)S1 (stereo not drawn) | -9.82 |
| CC(=O)Nc1ccc(NC(=O)CSc2ccc(-c3cccnc3)nn2)cc1 | 24.7 |
| Cc1cnc(C(=O)OCC(=O)Nc2ccc(Cl)cn2)cn1 | 8.13 |
| N=C(CC1CC(=O)NC(=O)C1)C1=C(O)CCCC1=O | 3.13 |
| CCN(CC)c1ccc(CC(=O)NC(C)Cc2ccccc2)cc1 (stereo not drawn) | -0.0724 |
| COc1ccc(CCNC(=O)CN(c2ccccc2OC)S(=O)(=O)c2ccc(C)cc2)cc1 | -13.1 |
| O=C(NCc1cccnc1)c1ccccc1NS(=O)(=O)c1ccc(F)cc1 | 2.64 |
| CC1(C)CC(=O)C(C=NCCN2CCN(C3CC(=O)N(c4ccc(F)cc4)C3=O)CC2)=C(O)C1 (stereo not drawn) | 6.86 |
| CC(C)c1ccc(S(=O)(=O)c2n[nH]n3c2nc(=O)c2ccccc23)cc1 | -16.7 |
| CC(=O)N1c2c(cc(Br)cc2S(=O)(=O)N2CCCCC2)CC1C (stereo not drawn) | -29.4 |
| CC(=O)Nc1sc2c(c1CN1CCN(c3ccccn3)CC1)CCCC2 | -55.3 |
| Cn1cnnc1SCc1nnc(-c2ccccc2Br)o1 | 11.1 |
| CCOc1ccc(NS(=O)(=O)c2ccc3c(c2)oc(=O)n3C)cc1 | 26.1 |
| CC1(C)CC(=O)C(C=NCCN2CCN(CCc3ccccc3)CC2)=C(O)C1 | -39.5 |
| CCN(CC)S(=O)(=O)c1cccc(C(=O)N/N=C/c2ccccc2OCC(=O)O)c1 | 13.7 |
| COc1ccccc1N1CCN(C2CCN(S(=O)(=O)c3ccc(NC(C)=O)cc3)CC2)CC1 | 0.727 |
| CN(C)C(=S)SSC(=S)N(C)C | 17.2 |
| CCN1CCN(C(c2cccs2)C(C)NC(=O)c2cccc(OC)c2OC)CC1 (stereo not drawn) | -18 |
| CCNc1nc(CSc2ccccc2)nc2sc(C)c(C)c12 | 1.64 |
| Oc1[nH]c2ccccc2c1OCc1ccncc1 | 8.82 |

| SMILES | hERG current change (%, negative = inhibition) at 10uM [%] |
| --- | --- |
| CCC(=O)Nc1ccc(S(=O)(=O)Nc2cccnc2)cc1 | 9.21 |
| Cl.O=C(NC1CCN(Cc2ccccc2)CC1)C12CC3CC(CC(C3)C1)C2 | -22.7 |
| COC(=O)CN(Cc1ccccc1)S(=O)(=O)c1ccc(OC)c(OC)c1 | -0.381 |
| COc1cc2c(cc1OC)C(C(=O)NCc1ccco1)C1c3ccccc3CCN1C2=O (stereo not drawn) | -10.3 |
| Cc1c(N(C)S(=O)(=O)c2cc(C(=O)Nc3ccccn3)ccc2Cl)c(=O)n(-c2ccccc2)n1C | 20.8 |
| COc1ccc(/C=N/NC(=S)Nc2cccc(C(=O)O)c2)cc1OC | 4.42 |
| COC(=O)c1sccc1NC(=O)c1ccccc1F | 15.3 |
| COc1cc(N2C(=O)CC3(CCCC3)CC2=O)cc(OC)c1OC | 4.04 |
| Cc1ccc(NC(=O)C2CC(=O)n3c(nc4ccccc43)N2)cc1Cl (stereo not drawn) | 22.8 |
| COCc1cc(C)nc(Nc2cc(C)ccc2C)c1C#N | 17 |
| CN1CCc2c(OCC(=O)N3N=C(c4cccs4)CC3c3ccc(F)cc3)cccc2C1=O (stereo not drawn) | -8.41 |
| Cc1ccc(NS(=O)(=O)c2cccc(C(=O)N3CCOCC3)c2)cc1 | 1.68 |
| C=CCNC(=O)c1ccccc1NC(=O)c1ccccc1N(C)S(C)(=O)=O | 6.35 |
| OC(CNCc1ccccc1Cl)COc1ccc(F)cc1 (stereo not drawn) | -21.3 |
| CC(C)(C)OC(=O)N[C@@H](Cc1ccccc1)c1nnc(SCC(N)=O)o1 | 8.51 |
| C=C(C)COc1ccc2c3c(c(=O)oc2c1OCC(=C)C)CCC3 | 4.39 |
| Cn1c(=O)c2cc(S(=O)(=O)Nc3ccc4c(c3)OCO4)ccc2n(C)c1=O | -16 |
| Cc1ccc(-c2nc(N(C)C3CCN(C)CC3)c3ccccc3n2)cc1 | -24.4 |
| CSc1nnc2c3cc(F)ccc3n(Cc3ccccc3)c2n1 | 13.6 |
| CSc1ccccc1NS(=O)(=O)c1cccc2nonc12 | 1.51 |
| Cc1nn(-c2ccccc2)nc1CNC(=O)C(C)Cc1ccccc1 (stereo not drawn) | 16.8 |

Reference: PMC4336329 (PLoS ONE, 2015)
